For 20 variants, self-cleavage results are on record in the RNAGym collection of RNA variant scans (doi:10.7554/elife.90254).

Read counts are not given, so values of variants with three or more changes are uncertain.

The labels stand for the following.
B1: LINE1-full (parent)
chain: UACGUAGGUGGUUUUCCCCUGAUAGUGCUAAGGGGGCCUGGAAGUUUGGACUGGGCAGAGCUCAACACAGCGUGGCAAAGUGGCUGUGGCUAGACUGCCUCUCUGGAUUCCUCGUCACUCAGCAGGGCAUCUCUGAGAGAAAUGCC

Variants of B1 are the subject of the series. Put plainly: self-cleavage, relative activity (ratio to wild type); higher = more cleavage; in vitro, sequencing; the parent is a self-cleaving ribozyme.
With UACGUAGGUGGUUUUCCCCUGAUAGUGCUAAGGGGGCCUGGAAGUUUGGACUGGGCAGAGCUCAACACAGCGUGGCAGAGUGGCUACGGCUAGACUGCCUCUCUGGAUUCCUCGUCACUCAGCAGGGCAUCUCUGAGAGAAAUGCC, the self-cleavage came out at 0.17.
In the case of UACGUAGGUGGUUUUCCCCUGAUAGUGCUAAGGGGGCCUGGAAGUUUGGACUGGGCAGAGCUCAACACAGCGUGGCAGAGCGGCUGUGGCUAGACAGCCCCUCUGGAUUCCUCGUCACUCAGCAGGGCAUCUCUGAGAGAAAUGCC it was 0.26; in that of UACGUAGGUGGUUUUCCCCUGAUAGUGCUAAGGGGGCCUGGAAGUUUGGACUGGGCAGAGCUCAACACAGCGUGGCAGAGUGGCUGAGGCUAGACUGCCUCUCUGGUCUCCUCGUCACUCAGCAGGGCAUCUCUGAGAGAAAUGCC, 0.04.
In the case of UACGUAGGUGGUUUUCCCCUGAUAGUGCUAAGGGGGCCUGGAAGUUUGGACUGGGCAGAGCUCAACACAGCGUGGCAGAGUGGCUGUGGCUAGACUACCUCUCUGGAUUCCUCGUCCCUCAGCAGGGCUUCUCUGAGAGAAAUGCC it was 0.76.
Then UACGUAGGUGGUUUUCCCCUGAUAGUGCUAAGGGGGCCUGGAAGUUUGGACUGGGCAGAGCUCAACACAGCGUGGCAGAGUGGCUGUGGCUAGACCGCCUCCCUAGAUUCCUCGUCACUCAGCGGGGCAUCUCUGAGAGAAAUGCC, with 0.
Regarding UACGUAGGUGGUUUUCCCCUGAUAGUGCUAAGGGGGCCUGGAAGUUUGGACUGGGCAGAGCUCAACACAGCGUGGCAGAGUGGCUGUGGCUAGACUGCCUCUCUGGAUUCCUAGUCACUCGGCAGGGCAUCUCUGAGAGAAACACC, the self-cleavage turned out to be 1.3.
Then UACGUAGGUGGUUUUCCCCUGAUAGUGCUAAGGGGGCCUGGAAGUUUGGACUGGGCAGAGCUCAACACAGCGUGGCAGAGUGGCUGUGGCUAGACUGCCUCUCUGUUUUCCUCGUCACUCAGCAGGGCAUCUCUGAGAGAAAUGCC, with 0.84; and UACGUAGGUGGUUUUCCCCUGAUAGUGCUAAGGGGGCCUGGAAGUUUGGACUGGGCAGAGCUCAACACAGCGUGGCAGAGUGGCUGUGGCUAGACCGCCUAUCUGGAUUCCUCGUCACUCAGCAGGGCAUCUCUGAGAGAAAUGCC, with 0.16; and UACGUAGGUGGUUUUCCCCUGAUAGUGCUAAGGGGGCCUGGAAGUUUGGACUGGGCAGAGCUCAACACAGCGUGGCAGAGUGGCCGUGGCUAGACAGCCUCUCCGGAUUCCUCGUCACUCAGCAGGGCAUCUCUGAGAGAAAUGCC, with 0.21.
Then UACGUAGGUGGUUUUCCCCUGAUAGUGCUAAGGGGGCCUGGAAGUUUGGACUGGGCAGAGCUCAACACAGCGUGGCAGAGUGGCUGUGGCUAGACAGCCUCUCUGGAUUCCUCGUCACUCAGCAGGGCAUCUCCGAGAGAAAUGCC, with 0.11.
Then UACGUAGGUGGUUUUCCCCUGAUAGUGCUAAGGGGGCCUGGAAGUUUGGACUGGGCAGAGCUCAACACAGCGUGGCAGAGUGGCUGUGGCUAGACUGCCUCUCUGGAUUCCUCGUUACUCAGCAGGGCAUCUCUGAGAGAAUUGCC, with 0.72; and UACGUAGGUGGUUUUCCCCUGAUAGUGCUAAGGGGGCCUGGAAGUUUGGACUGGGCAGAGCUCAACACAGCGUGGCAGAGUGGCUGUGGCUAGACCGCCUCUCUGGAUUCCUCGUCACUCAGCAGGGCAUCUCAGAGAGAAAUGCC, with 0.06; and UACGUAGGUGGUUUUCCCCUGAUAGUGCUAAGGGGGCCUGGAAGUUUGGACUGGGCAGAGCUCAACACAGCGUGGCAGAGUGGCUGUGGCUAGACCGCCUCUCUGGAUUCCUCGUCACUCAGCAGGGCACCUCUGAGAGAAAUGCC, with 0.
For the variant UACGUAGGUGGUUUUCCCCUGAUAGUGCUAAGGGGGCCUGGAAGUUUGGACUGGGCAGAGCUCAACACAGCGUGGCAGAGUGACUGUGGCUAGACUGCCUCUCUGGAUUCCUCGUCACUCAGCAGGGCAUCUCUGAGAGGAAUGCC, the self-cleavage was 0.9.
For the variant UACGUAGGUGGUUUUCCCCUGAUAGUGCUAAGGGGGCCUGGAAGUUUGGACUGGGCAGAGCUCAACACAGCGUGGCAGAGUGGCUGCGGCUAGACUGCCUCUCUGGAUUCCUCGUCACUCAGCAGGGCAUCUCUGAGGGAAAUGCC, the self-cleavage is 0.15.
In the case of UACGUAGGUGGUUUUCCCCUGAUAGUGCUAAGGGGGCCUGGAAGUUUGGACUGGGCAGAGCUCAACACAGCGUGGCAGAGUGGCUGAGGCUAGACUGUCUCUCUGGAUUCCUCGUCACUCAGCAGGGCAUCUCUGAGAGAAGUGCC it was 0.08.
In the case of UACGUAGGUGGUUUUCCCCUGAUAGUGCUAAGGGGGCCUGGAAGUUUGGACUGGGCAGAGCUCAACACAGCGUGGCAGAGUGGCUGUGGCUAGACUGCCCCUCUGGAUUCCUCGUCACUCAGCAGGGCAUCUCUGAGAGAAAAGCC it was 0; in that of UACGUAGGUGGUUUUCCCCUGAUAGUGCUAAGGGGGCCUGGAAGUUUGGACUGGGCAGAGCUCAACACAGCGUGGCAGAGUGACUGUGGCUAGACCGCCUCUCUGGAUUCCUCGUCACUCAGCAGGGCAUCUCUGAGAGAAAUGCC, 0.04.
In the case of UACGUAGGUGGUUUUCCCCUGAUAGUGCUAAGGGGGCCUGGAAGUUUGGACUGGGCAGAGCUCAACACAGCGUGGCAGAGUGGCUGUGGCUAGACUGCCACUCUGGAUUCCUCGUCACUCUGCAGGGCAUCUCUGAGAGAAAUGCC it was 0.16.
As to UACGUAGGUGGUUUUCCCCUGAUAGUGCUAAGGGGGCCUGGAAGUUUGGACUGGGCAGAGCUCAACACAGCGUGGCAGAGUGGCUGUGGCUAGACUGCCUCUCUGUAUUCCUCGUCACUCAGCAGGGCAUCUCUGGGAGAAAUGCC, the self-cleavage worked out at 1.02.
